# Laboratory results taken from the supplement of paper PMC7826260.
# The other results are listed elsewhere or left out. The data describe in vitro nicking of single-stranded DNA by Rep domains (1 h at 37 °C, 3 µM enzyme); the outer parts of the 90-letter strands are left off. Values are log2 of uncut reads against the no-enzyme pool; the lower, the more was cut; hits are not called. Reads are scaled to the total; values above 0 arise when much of the pool is cut.
# How the values were obtained:
# Assay in all cases: uncleaved DNA left, log2 of reads against the no-enzyme library (log2 ratio); higher = less cleavage (more negative = more Rep cleavage of the k-mer); sequences stand for … in CTCGTCCG…ACCGGAGA
# [1] = tested on: T1, Rep nickase domain of Muscovy duck circovirus
# T1 sequence (residues 1-111, tag not shown): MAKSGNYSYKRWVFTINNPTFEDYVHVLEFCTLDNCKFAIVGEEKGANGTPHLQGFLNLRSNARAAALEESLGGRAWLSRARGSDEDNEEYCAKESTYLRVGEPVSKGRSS
# Procedure: (§1)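 A pool of 90-nt single-stranded DNAs with seven random bases just before the constant AC of the nick site (name = the seven bases) was cut by 3 µM recombinant His6-SUMO-tagged Rep nickase domain (300 nM DNA, 50 mM HEPES pH 8.0, 50 mM NaCl, 1 mM MnCl2, 1 h, 37 °C, three replicates). Uncut DNA was amplified and sequenced.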
# [2] = tested on: T2, Rep nickase domain of banana bunchy top virus
# T2 sequence (residues 1-94, tag not shown): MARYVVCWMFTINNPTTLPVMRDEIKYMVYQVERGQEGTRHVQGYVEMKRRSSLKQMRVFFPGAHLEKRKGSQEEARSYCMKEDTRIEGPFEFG
# Procedure: as §1
# [3] = tested on: T3, Rep nickase domain of cabbage leaf curl virus
# T3 sequence (residues 1-116, tag not shown): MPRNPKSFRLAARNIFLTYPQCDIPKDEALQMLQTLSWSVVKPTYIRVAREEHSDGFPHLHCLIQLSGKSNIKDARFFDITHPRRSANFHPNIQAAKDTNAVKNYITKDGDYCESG
# Procedure: as §1
# [4] = tested on: T4, Rep nickase domain of chickpea chlorotic dwarf virus
# T4 sequence (residues 1-124, tag not shown): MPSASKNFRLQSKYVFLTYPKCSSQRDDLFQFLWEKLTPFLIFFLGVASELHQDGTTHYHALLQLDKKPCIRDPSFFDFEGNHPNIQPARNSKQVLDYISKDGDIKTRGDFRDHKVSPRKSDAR
# Procedure: as §1
# [5] = tested on: T5, Rep nickase domain of faba bean necrotic yellows virus
# T5 sequence (residues 1-98, tag not shown): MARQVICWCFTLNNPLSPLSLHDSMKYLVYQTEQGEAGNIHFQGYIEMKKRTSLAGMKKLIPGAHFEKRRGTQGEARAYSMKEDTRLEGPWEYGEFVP
# Procedure: as §1
# [6] = tested on: T6, Rep nickase domain of maize striate mosaic virus
# T6 sequence (residues 1-117, tag not shown): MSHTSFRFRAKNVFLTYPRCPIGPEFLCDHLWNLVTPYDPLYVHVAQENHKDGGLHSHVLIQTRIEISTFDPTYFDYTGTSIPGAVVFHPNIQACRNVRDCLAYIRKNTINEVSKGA
# Procedure: as §1
# [7] = tested on: T7, Rep nickase domain of porcine circovirus 2
# T7 sequence (residues 2-116, tag not shown): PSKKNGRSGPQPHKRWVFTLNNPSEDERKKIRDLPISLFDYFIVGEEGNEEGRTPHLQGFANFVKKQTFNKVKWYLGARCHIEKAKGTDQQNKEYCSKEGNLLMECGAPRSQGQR
# Procedure: as §1
# [8] = tested on: T8, Rep nickase domain of tomato golden mosaic virus
# T8 sequence (residues 1-124, tag not shown): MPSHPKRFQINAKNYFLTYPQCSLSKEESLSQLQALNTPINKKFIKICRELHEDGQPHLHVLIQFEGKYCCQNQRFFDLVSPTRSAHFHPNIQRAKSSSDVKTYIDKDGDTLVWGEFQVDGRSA
# Procedure: as §1
# [9] = tested on: T9, Rep nickase domain of tomato yellow leaf curl virus
# T9 sequence (residues 1-136, tag not shown): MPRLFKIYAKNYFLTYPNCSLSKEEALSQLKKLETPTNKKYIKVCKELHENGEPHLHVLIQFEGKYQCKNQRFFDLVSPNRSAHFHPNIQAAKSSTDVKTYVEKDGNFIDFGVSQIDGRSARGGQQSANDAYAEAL
# Procedure: as §1
# [10] = tested on: T10, Rep nickase domain of wheat dwarf virus
# T10 sequence (residues 1-137, tag not shown): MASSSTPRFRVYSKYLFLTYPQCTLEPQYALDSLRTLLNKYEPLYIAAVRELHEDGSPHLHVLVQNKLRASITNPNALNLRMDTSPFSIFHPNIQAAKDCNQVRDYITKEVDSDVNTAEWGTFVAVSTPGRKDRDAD
# Procedure: as §1
Sequence,uncleaved DNA left (log2) [1],uncleaved DNA left (log2) [2],uncleaved DNA left (log2) [3],uncleaved DNA left (log2) [4],uncleaved DNA left (log2) [5],uncleaved DNA left (log2) [6],uncleaved DNA left (log2) [7],uncleaved DNA left (log2) [8],uncleaved DNA left (log2) [9],uncleaved DNA left (log2) [10]
GACTCCT,-0.706,-0.854,-0.0685,-2.29,-0.139,0.594,-2.82,-0.135,-0.134,0.0496
CTTTGAT,-0.652,-0.172,-0.141,-0.309,-0.0771,-0.463,-2.03,-0.0614,-0.123,-0.0519
GGCCGTG,0.144,0.166,0.548,1.08,0.0731,1.35,0.151,0.187,0.213,0.0998
GCCCCTG,-0.142,0.0738,-0.137,0.228,-0.0947,0.104,-0.0522,-0.0831,-0.00991,-0.0865
AGTCGCG,0.0287,0.0101,-0.803,0.301,0.0388,-0.583,0.212,-0.0394,-0.00944,-0.0303
TAGGCGG,0.14,0.115,0.374,0.671,0.131,0.671,0.187,0.069,-0.157,-0.00293
TGTATTC,0.0394,-0.0885,0.374,0.614,-0.00924,0.739,-0.0178,0.072,0.0116,0.101
TATCTGC,0.031,-0.0283,-0.3,-0.518,-0.00662,-0.941,0.116,-0.262,0.0593,0.000705
GTGAACC,0.0485,0.122,0.412,0.942,0.11,1.79,0.11,0.183,0.125,0.119
ATGAGAG,0.0319,0.056,-0.408,-0.321,-0.014,-0.983,0.203,0.149,0.005,-0.0334
GGGACTG,0.0438,0.0371,0.73,1.74,-0.106,2.23,0.179,0.135,-0.149,0.108
CTATCGA,0.103,0.0814,-0.483,-0.608,0.0849,-1.13,0.0295,-0.0286,-0.016,-0.00934
TTAATGA,0.0434,0.00988,0.136,0.0898,0.0497,-0.597,-0.0385,0.0372,0.0316,-0.0331
TTTGAGC,0.0375,-0.0275,-0.322,-0.742,0.00345,-1.15,0.00176,-0.186,-0.00564,-0.146
GGGCTAC,-0.00314,0.0744,0.785,1.79,-0.173,2.17,0.265,0.143,0.107,0.0469
